Experiment [1] addresses KLF5-3 × Flag, full-length KLF5 (1–457) (human) (UniProt Q13887). Briefly: co-IP; KLF5-3 × Flag and BAP1 co-transfected into HEK293FT cells; KLF5 immunoprecipitated with anti-Flag (Flag-M2 beads); partners detected by WB.
The target in experiment [2] is endogenous BAP1 (human (endogenous in MCF10A and HCC1806)) (UniProt Q92560). Briefly: co-IP; endogenous proteins; HCC1806 cell lysates immunoprecipitated with the anti-BAP1 antibody, IgG as negative control; partners detected by WB.

Protein sequences, listed by entry. Tags and fused reporters are not part of them.
UniProt Q13887: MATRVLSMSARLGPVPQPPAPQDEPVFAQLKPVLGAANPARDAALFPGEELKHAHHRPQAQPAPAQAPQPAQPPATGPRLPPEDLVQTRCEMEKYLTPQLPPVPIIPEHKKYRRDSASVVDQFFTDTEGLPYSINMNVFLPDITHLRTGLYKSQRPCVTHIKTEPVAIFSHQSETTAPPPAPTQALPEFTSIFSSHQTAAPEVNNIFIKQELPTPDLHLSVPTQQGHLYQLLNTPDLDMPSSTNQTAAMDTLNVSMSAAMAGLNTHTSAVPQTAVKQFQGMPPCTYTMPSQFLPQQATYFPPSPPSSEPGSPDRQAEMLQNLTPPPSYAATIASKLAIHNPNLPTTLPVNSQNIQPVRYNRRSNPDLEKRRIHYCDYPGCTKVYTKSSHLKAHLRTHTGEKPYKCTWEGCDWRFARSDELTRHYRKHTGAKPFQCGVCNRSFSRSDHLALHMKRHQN
UniProt Q92560: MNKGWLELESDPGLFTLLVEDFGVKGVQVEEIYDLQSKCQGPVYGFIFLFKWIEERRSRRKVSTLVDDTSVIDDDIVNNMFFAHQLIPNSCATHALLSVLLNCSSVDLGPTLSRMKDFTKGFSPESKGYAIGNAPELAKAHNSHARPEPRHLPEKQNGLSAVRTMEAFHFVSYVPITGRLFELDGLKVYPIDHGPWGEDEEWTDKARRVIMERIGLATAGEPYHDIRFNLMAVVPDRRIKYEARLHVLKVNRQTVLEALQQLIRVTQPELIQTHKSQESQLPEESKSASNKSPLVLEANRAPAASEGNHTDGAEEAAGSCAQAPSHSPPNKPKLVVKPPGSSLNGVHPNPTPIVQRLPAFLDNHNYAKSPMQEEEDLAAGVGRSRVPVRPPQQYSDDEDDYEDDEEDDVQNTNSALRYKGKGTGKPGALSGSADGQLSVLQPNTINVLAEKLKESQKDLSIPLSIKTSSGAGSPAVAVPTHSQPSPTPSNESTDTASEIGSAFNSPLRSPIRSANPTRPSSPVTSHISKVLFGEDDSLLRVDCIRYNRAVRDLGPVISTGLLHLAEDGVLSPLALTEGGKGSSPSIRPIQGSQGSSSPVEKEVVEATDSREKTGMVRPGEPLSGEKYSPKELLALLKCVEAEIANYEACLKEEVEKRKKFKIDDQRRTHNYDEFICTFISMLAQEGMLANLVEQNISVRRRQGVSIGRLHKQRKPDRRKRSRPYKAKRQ

These are yes or no findings as the source states them, for the method shown. In cells and extracts the contact can be indirect. Some results given as binding are weak or reduced against the parent protein; the word gives no strength. Sequences can lack the tags named with a protein.

B1: O-linked N-acetylglucosaminetransferase (OGT), endogenous (enzyme, UniProt O15294 1-1046)
chain: MASSVGNVADSTEPTKRMLSFQGLAELAHREYQAGDFEAAERHCMQLWRQEPDNTGVLLLLSSIHFQCRRLDRSAHFSTLAIKQNPLLAEAYSNLGNVYKERGQLQEAIEHYRHALRLKPDFIDGYINLAAALVAAGDMEGAVQAYVSALQYNPDLYCVRSDLGNLLKALGRLEEAKACYLKAIETQPNFAVAWSNLGCVFNAQGEIWLAIHHFEKAVTLDPNFLDAYINLGNVLKEARIFDRAVAAYLRALSLSPNHAVVHGNLACVYYEQGLIDLAIDTYRRAIELQPHFPDAYCNLANALKEKGSVAEAEDCYNTALRLCPTHADSLNNLANIKREQGNIEEAVRLYRKALEVFPEFAAAHSNLASVLQQQGKLQEALMHYKEAIRISPTFADAYSNMGNTLKEMQDVQGALQCYTRAIQINPAFADAHSNLASIHKDSGNIPEAIASYRTALKLKPDFPDAYCNLAHCLQIVCDWTDYDERMKKLVSIVADQLEKNRLPSVHPHHSMLYPLSHGFRKAIAERHGNLCLDKINVLHKPPYEHPKDLKLSDGRLRVGYVSSDFGNHPTSHLMQSIPGMHNPDKFEVFCYALSPDDGTNFRVKVMAEANHFIDLSQIPCNGKAADRIHQDGIHILVNMNGYTKGARNELFALRPAPIQAMWLGYPGTSGALFMDYIITDQETSPAEVAEQYSEKLAYMPHTFFIGDHANMFPHLKKKAVIDFKSNGHIYDNRIVLNGIDLKAFLDSLPDVKIVKMKCPDGGDNADSSNTALNMPVIPMNTIAEAVIEMINRGQIQITINGFSISNGLATTQINNKAATGEEVPRTIIVTTRSQYGLPEDAIVYCNFNQLYKIDPSTLQMWANILKRVPNSVLWLLRFPAVGEPNIQQYAQNMGLPQNRIIFSPVAPKEEHVRRGQLADVCLDTPLCNGHTTGMDVLWAGTPMVTMPGETLASRVAASQLTCLGCLELIAKNRQEYEDIAVKLGTDLEYLKKVRGKVWKQRISSPLFNTKQYTMELERLYLQMWEHYAAGNKPDHMIKPVEVTESA
For B1, the binding entry in experiment [1] and in experiment [2] was “binds” throughout.

These data come from article PMC4598844.
